Experimental data as given in PMC7188906.
Results are given in words; binding and its absence hold for the method and conditions named. Binding seen in cells or lysates may run through a third protein. Some entries that bind do so weakly or less than the wild type. Sequences can lack the tags named with a protein.

The chains behind the UniProt entries cited, without tags or fusion partners.
UniProt P35626: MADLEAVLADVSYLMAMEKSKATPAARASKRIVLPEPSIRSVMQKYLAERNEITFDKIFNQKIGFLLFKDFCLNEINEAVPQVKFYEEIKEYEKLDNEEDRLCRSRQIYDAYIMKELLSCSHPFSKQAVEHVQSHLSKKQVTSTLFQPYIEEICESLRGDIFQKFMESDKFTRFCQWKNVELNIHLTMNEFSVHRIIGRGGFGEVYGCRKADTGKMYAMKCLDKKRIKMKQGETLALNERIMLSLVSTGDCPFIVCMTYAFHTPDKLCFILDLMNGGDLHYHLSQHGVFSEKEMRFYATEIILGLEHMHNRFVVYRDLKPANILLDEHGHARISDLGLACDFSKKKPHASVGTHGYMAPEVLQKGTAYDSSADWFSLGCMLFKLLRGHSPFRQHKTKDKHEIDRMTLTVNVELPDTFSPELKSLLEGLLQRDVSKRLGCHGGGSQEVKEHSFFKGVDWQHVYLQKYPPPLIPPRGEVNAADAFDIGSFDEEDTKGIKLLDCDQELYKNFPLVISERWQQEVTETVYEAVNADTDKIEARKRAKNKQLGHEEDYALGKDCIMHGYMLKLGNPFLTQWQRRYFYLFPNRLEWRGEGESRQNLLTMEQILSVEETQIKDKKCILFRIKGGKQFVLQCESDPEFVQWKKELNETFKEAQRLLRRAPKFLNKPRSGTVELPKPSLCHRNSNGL
UniProt P50148: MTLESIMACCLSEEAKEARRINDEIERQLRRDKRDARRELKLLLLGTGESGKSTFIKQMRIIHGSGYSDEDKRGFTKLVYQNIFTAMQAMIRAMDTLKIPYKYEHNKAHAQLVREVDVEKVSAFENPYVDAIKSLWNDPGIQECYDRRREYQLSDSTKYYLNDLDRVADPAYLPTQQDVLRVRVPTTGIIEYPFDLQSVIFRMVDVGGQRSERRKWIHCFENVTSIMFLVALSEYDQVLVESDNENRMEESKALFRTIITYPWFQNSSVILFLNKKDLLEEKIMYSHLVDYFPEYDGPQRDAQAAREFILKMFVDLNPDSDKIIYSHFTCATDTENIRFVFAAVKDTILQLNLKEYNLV
UniProt P32298: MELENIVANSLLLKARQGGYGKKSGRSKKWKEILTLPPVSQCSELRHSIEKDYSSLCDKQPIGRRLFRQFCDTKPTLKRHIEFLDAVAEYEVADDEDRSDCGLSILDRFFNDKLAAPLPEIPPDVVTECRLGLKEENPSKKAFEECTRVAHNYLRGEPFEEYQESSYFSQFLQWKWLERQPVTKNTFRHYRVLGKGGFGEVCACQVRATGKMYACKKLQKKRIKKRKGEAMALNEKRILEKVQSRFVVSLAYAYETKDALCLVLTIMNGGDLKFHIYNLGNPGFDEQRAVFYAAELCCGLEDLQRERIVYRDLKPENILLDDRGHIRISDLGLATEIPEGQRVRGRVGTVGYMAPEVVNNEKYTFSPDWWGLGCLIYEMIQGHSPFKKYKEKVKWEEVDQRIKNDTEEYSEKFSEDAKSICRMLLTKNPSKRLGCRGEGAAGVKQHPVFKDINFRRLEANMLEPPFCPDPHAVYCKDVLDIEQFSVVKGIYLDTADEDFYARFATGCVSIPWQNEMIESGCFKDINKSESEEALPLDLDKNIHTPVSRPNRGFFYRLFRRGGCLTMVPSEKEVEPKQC
UniProt P49407: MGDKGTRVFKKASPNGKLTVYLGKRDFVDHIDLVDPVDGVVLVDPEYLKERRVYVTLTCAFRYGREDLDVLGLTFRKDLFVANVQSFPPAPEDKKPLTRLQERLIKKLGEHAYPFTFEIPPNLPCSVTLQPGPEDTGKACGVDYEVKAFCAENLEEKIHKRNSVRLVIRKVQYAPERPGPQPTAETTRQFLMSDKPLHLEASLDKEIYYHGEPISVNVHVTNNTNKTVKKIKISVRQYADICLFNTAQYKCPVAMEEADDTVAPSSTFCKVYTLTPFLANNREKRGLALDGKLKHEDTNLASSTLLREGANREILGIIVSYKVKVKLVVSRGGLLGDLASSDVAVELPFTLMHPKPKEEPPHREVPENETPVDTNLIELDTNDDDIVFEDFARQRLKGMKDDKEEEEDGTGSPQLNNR
UniProt P25098: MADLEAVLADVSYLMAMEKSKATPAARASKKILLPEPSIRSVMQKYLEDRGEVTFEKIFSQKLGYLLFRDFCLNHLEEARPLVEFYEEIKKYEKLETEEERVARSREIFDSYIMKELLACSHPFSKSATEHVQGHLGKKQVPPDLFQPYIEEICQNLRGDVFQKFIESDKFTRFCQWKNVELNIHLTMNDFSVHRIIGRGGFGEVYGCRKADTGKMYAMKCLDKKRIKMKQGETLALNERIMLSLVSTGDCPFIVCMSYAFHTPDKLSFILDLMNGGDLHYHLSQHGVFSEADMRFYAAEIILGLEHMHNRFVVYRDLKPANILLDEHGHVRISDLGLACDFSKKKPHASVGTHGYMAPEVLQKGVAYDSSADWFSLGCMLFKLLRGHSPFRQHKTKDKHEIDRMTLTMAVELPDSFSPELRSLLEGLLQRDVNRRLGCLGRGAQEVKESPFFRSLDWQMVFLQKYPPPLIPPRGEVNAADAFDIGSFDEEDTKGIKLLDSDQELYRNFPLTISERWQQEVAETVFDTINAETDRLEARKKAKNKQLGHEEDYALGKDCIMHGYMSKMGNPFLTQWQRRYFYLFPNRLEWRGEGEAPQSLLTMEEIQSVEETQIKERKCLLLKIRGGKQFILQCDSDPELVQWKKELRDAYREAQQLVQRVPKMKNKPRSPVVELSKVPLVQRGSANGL
UniProt P34947: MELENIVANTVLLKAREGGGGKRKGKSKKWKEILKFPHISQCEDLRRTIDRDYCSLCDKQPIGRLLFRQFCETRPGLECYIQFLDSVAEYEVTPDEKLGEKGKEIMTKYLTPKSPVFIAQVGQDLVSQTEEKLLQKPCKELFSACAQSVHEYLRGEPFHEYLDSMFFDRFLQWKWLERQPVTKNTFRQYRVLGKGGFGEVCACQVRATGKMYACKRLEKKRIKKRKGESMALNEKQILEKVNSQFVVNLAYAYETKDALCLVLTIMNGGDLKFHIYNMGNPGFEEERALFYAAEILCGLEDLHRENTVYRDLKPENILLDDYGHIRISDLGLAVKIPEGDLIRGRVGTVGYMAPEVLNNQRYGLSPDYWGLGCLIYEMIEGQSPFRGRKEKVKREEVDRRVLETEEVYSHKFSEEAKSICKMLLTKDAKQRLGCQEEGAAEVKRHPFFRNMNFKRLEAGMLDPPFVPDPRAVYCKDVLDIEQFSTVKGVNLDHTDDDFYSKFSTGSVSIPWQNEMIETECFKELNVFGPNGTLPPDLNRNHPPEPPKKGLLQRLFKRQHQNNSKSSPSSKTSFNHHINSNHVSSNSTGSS
UniProt Q14344: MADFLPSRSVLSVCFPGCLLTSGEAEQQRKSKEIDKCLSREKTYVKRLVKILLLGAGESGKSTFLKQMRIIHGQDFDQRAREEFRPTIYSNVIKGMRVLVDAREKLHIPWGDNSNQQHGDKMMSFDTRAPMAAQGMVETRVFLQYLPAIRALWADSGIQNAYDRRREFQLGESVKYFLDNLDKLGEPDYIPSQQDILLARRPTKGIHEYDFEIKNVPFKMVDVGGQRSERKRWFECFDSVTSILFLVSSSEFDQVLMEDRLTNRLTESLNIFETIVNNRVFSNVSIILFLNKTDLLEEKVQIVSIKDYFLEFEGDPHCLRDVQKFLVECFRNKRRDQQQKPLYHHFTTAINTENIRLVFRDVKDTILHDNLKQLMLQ
UniProt P63096: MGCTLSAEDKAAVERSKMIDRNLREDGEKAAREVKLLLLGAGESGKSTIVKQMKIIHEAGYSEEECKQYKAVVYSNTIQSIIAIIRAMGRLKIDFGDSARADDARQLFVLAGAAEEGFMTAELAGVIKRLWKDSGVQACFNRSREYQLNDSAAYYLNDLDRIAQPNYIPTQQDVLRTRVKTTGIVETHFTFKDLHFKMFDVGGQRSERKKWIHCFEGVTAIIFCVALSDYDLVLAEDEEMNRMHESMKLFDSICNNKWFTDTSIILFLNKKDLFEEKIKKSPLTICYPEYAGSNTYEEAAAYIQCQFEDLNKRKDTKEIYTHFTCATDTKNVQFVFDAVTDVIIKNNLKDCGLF
UniProt P63092: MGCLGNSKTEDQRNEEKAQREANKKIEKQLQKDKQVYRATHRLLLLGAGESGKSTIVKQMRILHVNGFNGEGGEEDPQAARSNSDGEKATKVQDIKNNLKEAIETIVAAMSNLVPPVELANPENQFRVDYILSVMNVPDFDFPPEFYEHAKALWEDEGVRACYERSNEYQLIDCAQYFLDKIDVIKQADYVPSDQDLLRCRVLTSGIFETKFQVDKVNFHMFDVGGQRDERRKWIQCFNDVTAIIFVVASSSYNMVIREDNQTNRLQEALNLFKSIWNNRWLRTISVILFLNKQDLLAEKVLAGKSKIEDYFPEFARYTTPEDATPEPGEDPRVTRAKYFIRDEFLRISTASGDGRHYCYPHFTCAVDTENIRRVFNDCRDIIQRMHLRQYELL

What was measured:
[1] = target: T1, tailless human ACKR4t-EYFP (ACKR4 1-304) (human) (UniProt Q9NPB9); test: FRET or BRET; live HeLa cells co-transfected with receptor-EYFP (acceptor) and Nluc fusion (donor), DNA ratio 3:1; NetBRET at steady state, before chemokine addition; PBS with 5% glucose, 5 μM coelenterazine H; in Figure 3J-L cells pretreated 2 h with 30 μM cmpd101 or DMSO
T1 sequence: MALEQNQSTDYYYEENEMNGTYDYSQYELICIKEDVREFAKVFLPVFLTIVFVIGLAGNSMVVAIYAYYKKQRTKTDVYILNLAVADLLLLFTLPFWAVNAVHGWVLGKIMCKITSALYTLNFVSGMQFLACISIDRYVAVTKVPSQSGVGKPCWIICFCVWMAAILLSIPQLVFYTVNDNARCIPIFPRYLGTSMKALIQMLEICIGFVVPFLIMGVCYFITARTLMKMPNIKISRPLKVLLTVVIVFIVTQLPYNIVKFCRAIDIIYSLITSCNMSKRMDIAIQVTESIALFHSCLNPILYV

human ACKR4-EYFP (human) [2] = target: T2, human ACKR4-EYFP (human) (UniProt Q9NPB9); test: FRET or BRET; as a1, but after stimulation of the cells with chemokine (CCL19, CCL21 or CCL25; graded concentrations, 114 nM, 352 nM, 408 nM or 1.5 μM as the legends say); NetBRET, corrected NetBRET or area under the curve; in Figure 3J-L cells pretreated 2 h with 30 μM cmpd101 or DMSO
T2 sequence: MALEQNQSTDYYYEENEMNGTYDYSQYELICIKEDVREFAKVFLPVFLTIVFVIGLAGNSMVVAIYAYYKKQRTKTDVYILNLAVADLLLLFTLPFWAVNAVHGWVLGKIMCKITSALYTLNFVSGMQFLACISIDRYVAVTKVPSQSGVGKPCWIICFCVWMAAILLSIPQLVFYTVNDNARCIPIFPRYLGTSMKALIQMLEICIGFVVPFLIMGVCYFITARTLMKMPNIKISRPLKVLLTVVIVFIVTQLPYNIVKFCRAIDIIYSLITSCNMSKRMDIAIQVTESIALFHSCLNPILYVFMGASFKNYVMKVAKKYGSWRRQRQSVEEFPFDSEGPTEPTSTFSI

[3] = target: T1, tailless human ACKR4t-EYFP (ACKR4 1-304) (human); test: as above
human ACKR4-EYFP (human) [4] = target: T2, human ACKR4-EYFP (human); test: FRET or BRET; live HeLa cells co-transfected with receptor-EYFP (acceptor) and Nluc fusion (donor), DNA ratio 3:1; NetBRET at steady state, before chemokine addition; PBS with 5% glucose, 5 μM coelenterazine H; in Figure 3J-L cells pretreated 2 h with 30 μM cmpd101 or DMSO

Row | Substance | binding [1] | binding (human ACKR4-EYFP (human) [2]) | binding [3] | binding (human ACKR4-EYFP (human) [4])
1 | human GRK3-Nluc (from UniProt P35626 1-688) (enzyme) | no binding | binds | no binding | –
2 | human Gαq-Nluc (from UniProt P50148 1-359) | – | no binding | – | no binding
3 | human Nluc-GRK4 (from UniProt P32298 1-578) (enzyme) | – | no binding | – | –
4 | human β-arrestin1-Nluc (from UniProt P49407 1-418) | – | binds | – | binds

Second part, the substance after the results:

Row | binding [1] | binding (human ACKR4-EYFP (human) [2]) | binding [3] | binding (human ACKR4-EYFP (human) [4]) | Substance
5 | no binding | binds | no binding | – | human GRK2-Nluc (from UniProt P25098 1-689) (enzyme)
6 | – | no binding | – | – | human GRK5-Nluc (from UniProt P34947 1-590) (enzyme)
7 | – | no binding | – | no binding | human Gα13-Nluc (from UniProt Q14344 1-377)
8 | – | no binding | – | no binding | human Gαi-Nluc (from UniProt P63096 1-354)
9 | – | no binding | – | no binding | human Gαs-Nluc (from UniProt P63092 1-394)
